Results from the supplement of paper PMC4967469.
A lower IC50 marks a more sensitive line; a fit beyond the top or the lowest dose is shown as a bound at that dose. AUC is the area under the same curve over the 256-fold range up to the top dose, as a fraction: 1 means no effect, lower means more sensitive. For part of these data: An inferred top dose comes from the curve model; the source does not state it. For part of these data: Drugs with an entry number were screened twice under separate entries, and the two screens often disagree.

Tests used:
Test in all cases: Viability of human cancer cell lines after 72 h of drug (GDSC screen)
Thapsigargin = compound: C/C=C(/C)C(=O)O[C@H]1C(C)=C2[C@H]([C@@H]1OC(=O)CCCCCCC)[C@@](C)(OC(C)=O)C[C@H](OC(=O)CCC)[C@@]1(O)[C@H]2OC(=O)[C@@]1(C)O [Thapsigargin]; conditions: top dose 0.512 µM; top dose inferred
Protocol: (§1)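 Human cancer cell lines in 384-well plates, medium with 10% serum, drug for 72 h over a 256-fold dose range (nine 2-fold or five 4-fold steps up to the top dose). Adherent lines were fixed and stained with the nucleic acid dye Syto60, suspension lines read with resazurin; signal relative to control wells, capped at 0 and 100%. One two-parameter sigmoid per drug and line, fitted in a mixed model over all curves with the slope shared within a line.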

QL-X-138 = compound: C=CC(=O)Nc1cc(-n2c(=O)ccc3cnc4ccc(-c5cn[nH]c5)cc4c32)ccc1C [QL-X-138]; conditions: top dose 10.24 µM; top dose inferred
Protocol: as §1

MPS-1-IN-1 = compound: COc1cc(N2CCC(O)CC2)ccc1Nc1cc(Nc2ccccc2S(=O)(=O)C(C)C)c2cc[nH]c2n1 [MPS-1-IN-1]; conditions: top dose 20 µM; top dose inferred
Protocol: as §1

CP466722 = compound: COc1cc2ncnc(-n3nc(-c4ccccn4)nc3N)c2cc1OC [CP466722]; conditions: top dose 16 µM; top dose inferred
Protocol: as §1

Zibotentan = compound: COc1nc(C)cnc1NS(=O)(=O)c1cccnc1-c1ccc(-c2nnco2)cc1 [Zibotentan]; conditions: top dose 20 µM; top dose inferred
Protocol: as §1

ABT-888 = compound: C[C@]1(c2nc3c(C(N)=O)cccc3[nH]2)CCCN1 [ABT-888]; conditions: top dose 5 µM; top dose inferred
Protocol: as §1

ABT-869 = compound: Cc1ccc(F)c(NC(=O)Nc2ccc(-c3cccc4[nH]nc(N)c34)cc2)c1 [ABT-869]; conditions: top dose 1.024 µM; top dose inferred
Protocol: as §1

CHIR-99021 = compound: Cc1cnc(-c2cnc(NCCNc3ccc(C#N)cn3)nc2-c2ccc(Cl)cc2Cl)[nH]1 [CHIR-99021]
Protocol: as §1

KU-55933 = compound: O=c1cc(-c2cccc3c2Sc2ccccc2S3)oc(N2CCOCC2)c1 [KU-55933]; conditions: top dose 10 µM
Protocol: as §1

GSK269962A = compound: CCn1c(-c2nonc2N)nc2cnc(Oc3cccc(NC(=O)c4ccc(OCCN5CCOCC5)cc4)c3)cc21 [GSK269962A]; conditions: top dose 5 µM; screen: GDSC drug entry 1192; top dose inferred
Protocol: as §1

(5Z)-7-Oxozeaenol = compound: COc1cc(O)c2c(c1)/C=C/C[C@H](O)[C@H](O)C(=O)/C=C\C[C@H](C)OC2=O [(5Z)-7-Oxozeaenol]; conditions: top dose 10 µM; top dose inferred
Protocol: as §1

[1] = top dose 2.56 µM, screen: GDSC drug entry 154
[2] = top dose 10 µM, screen: GDSC drug entry 1241, top dose inferred

Cell Line	AUC (Thapsigargin)	IC50 (Thapsigargin)	AUC (QL-X-138)	IC50 (QL-X-138)	AUC (MPS-1-IN-1)	IC50 (MPS-1-IN-1)	AUC (CP466722)	IC50 (CP466722)	AUC (Zibotentan)	IC50 (Zibotentan)	AUC (ABT-888)	IC50 (ABT-888)	AUC (ABT-869)	IC50 (ABT-869)	AUC (CHIR-99021; [1])	IC50 (CHIR-99021; [1])	AUC (KU-55933)	IC50 (KU-55933)	AUC (GSK269962A)	IC50 (GSK269962A)	AUC ((5Z)-7-Oxozeaenol)	IC50 ((5Z)-7-Oxozeaenol)	AUC (CHIR-99021; [2])	IC50 (CHIR-99021; [2])
201T (lung adenocarcinoma, adherent)	0.223	0.00391 µM	0.86	> 10.2 µM	0.896	> 20 µM	0.802	10.4 µM	0.975	> 20 µM	0.98	> 5 µM	0.98	> 1.02 µM	0.978	> 2.56 µM	0.952	> 10 µM	–	–	–	–	–	–
A2780 (ovary, semi-adherent)	0.217	0.00456 µM	–	–	0.749	6.68 µM	0.711	4.03 µM	0.982	> 20 µM	0.965	> 5 µM	0.979	> 1.02 µM	0.983	> 2.56 µM	0.984	> 10 µM	0.8	2.52 µM	0.647	1.62 µM	0.833	6.77 µM
Hs-578-T (breast, adherent)	–	–	0.952	> 10.2 µM	0.987	> 20 µM	0.987	> 16 µM	0.987	> 20 µM	0.987	> 5 µM	0.987	> 1.02 µM	0.977	> 2.56 µM	0.895	> 10 µM	0.856	4.43 µM	0.727	2.9 µM	0.881	> 10 µM
JHOS-2 (ovary, adherent)	–	–	0.858	> 10.2 µM	0.931	> 20 µM	0.768	6.94 µM	0.983	> 20 µM	0.971	> 5 µM	0.983	> 1.02 µM	–	–	0.878	> 10 µM	0.954	> 5 µM	0.54	0.818 µM	0.869	> 10 µM
OV-56 (ovary, adherent)	–	–	0.853	7.53 µM	0.946	> 20 µM	0.843	10.7 µM	0.989	> 20 µM	0.988	> 5 µM	0.988	> 1.02 µM	–	–	0.959	> 10 µM	0.973	> 5 µM	0.681	1.95 µM	0.926	> 10 µM
OVCA433 (ovary, adherent)	–	–	0.815	6.45 µM	0.971	> 20 µM	0.915	> 16 µM	0.981	> 20 µM	0.985	> 5 µM	0.976	> 1.02 µM	–	–	0.951	> 10 µM	0.668	0.975 µM	0.388	0.296 µM	0.878	> 10 µM
RCC-ER (kidney, adherent)	–	–	0.879	> 10.2 µM	0.981	> 20 µM	0.832	12 µM	0.985	> 20 µM	0.986	> 5 µM	0.98	> 1.02 µM	–	–	0.922	> 10 µM	0.974	> 5 µM	0.791	5.08 µM	0.704	2.53 µM
RCC-JF (kidney, adherent)	–	–	0.459	0.488 µM	0.895	> 20 µM	0.714	4.38 µM	0.983	> 20 µM	0.962	> 5 µM	0.977	> 1.02 µM	–	–	0.923	> 10 µM	0.363	0.124 µM	0.586	1.11 µM	0.893	> 10 µM
RCC-MF (kidney, adherent)	–	–	0.381	0.273 µM	0.903	> 20 µM	0.711	4.78 µM	0.973	> 20 µM	0.965	> 5 µM	0.969	> 1.02 µM	–	–	0.92	> 10 µM	0.827	4.35 µM	0.76	4.51 µM	0.886	> 10 µM
SCC90 (head and neck, adherent)	0.429	0.0189 µM	–	–	–	–	0.797	11.5 µM	–	–	0.981	> 5 µM	–	–	0.979	> 2.56 µM	0.981	> 10 µM	0.929	> 5 µM	0.808	8.13 µM	0.971	> 10 µM
SK-GT-4 (oesophagus, adherent)	–	–	0.678	2.28 µM	0.856	> 20 µM	0.851	> 16 µM	0.98	> 20 µM	0.964	> 5 µM	0.974	> 1.02 µM	–	–	0.957	> 10 µM	0.941	> 5 µM	0.768	4.64 µM	0.914	> 10 µM
SK-MEL-5 (melanoma, adherent)	–	–	0.795	5.98 µM	0.983	> 20 µM	0.912	> 16 µM	0.983	> 20 µM	0.936	> 5 µM	0.979	> 1.02 µM	–	–	0.921	> 10 µM	0.959	> 5 µM	0.337	0.199 µM	0.98	> 10 µM
YH-13 (glioma, adherent)	–	–	0.732	3.07 µM	0.986	> 20 µM	0.819	9.73 µM	0.98	> 20 µM	0.983	> 5 µM	0.959	> 1.02 µM	–	–	0.913	> 10 µM	0.665	0.928 µM	0.439	0.422 µM	0.847	8.04 µM
